Experimental data from PubChem BioAssay AID1645887 (National Center for Advancing Translational Sciences (NCATS), 2021).
Where “and” joins values, the source holds several entries; their conditions need not be identical. Identical values can stand only once. Screen size: about 16,000 compounds; about 40 (0.2%) were called active. Roughly 1% stayed inconclusive and do not appear here. The call rests on the fitted dose curve; in most records, active means well fitted activation curve with a large enough effect; inconclusive means small, poorly fitted or top-dose-only effect, or another doubt; inactive means no such curve, though single readings can be large or run the other way. This is one part of the list.

target: Rap guanine nucleotide exchange factor 4 (Homo sapiens) (UniProt Q8WZA2); assay: Validation qHTS for agonist of cAMP-regulated guanine nucleotide exchange factor 4 (EPAC2); conditions: EPAC2 Rap1B BODIPY-GDP exchange, fluorescence; activation: stronger effect = higher value;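 further: exchange makes BODIPY-GDP fluorescence drop when released from Rap1B; series mostly up to about 150 µM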
UniProt Q8WZA2, sequence (Q8WZA2 whole entry, looked up): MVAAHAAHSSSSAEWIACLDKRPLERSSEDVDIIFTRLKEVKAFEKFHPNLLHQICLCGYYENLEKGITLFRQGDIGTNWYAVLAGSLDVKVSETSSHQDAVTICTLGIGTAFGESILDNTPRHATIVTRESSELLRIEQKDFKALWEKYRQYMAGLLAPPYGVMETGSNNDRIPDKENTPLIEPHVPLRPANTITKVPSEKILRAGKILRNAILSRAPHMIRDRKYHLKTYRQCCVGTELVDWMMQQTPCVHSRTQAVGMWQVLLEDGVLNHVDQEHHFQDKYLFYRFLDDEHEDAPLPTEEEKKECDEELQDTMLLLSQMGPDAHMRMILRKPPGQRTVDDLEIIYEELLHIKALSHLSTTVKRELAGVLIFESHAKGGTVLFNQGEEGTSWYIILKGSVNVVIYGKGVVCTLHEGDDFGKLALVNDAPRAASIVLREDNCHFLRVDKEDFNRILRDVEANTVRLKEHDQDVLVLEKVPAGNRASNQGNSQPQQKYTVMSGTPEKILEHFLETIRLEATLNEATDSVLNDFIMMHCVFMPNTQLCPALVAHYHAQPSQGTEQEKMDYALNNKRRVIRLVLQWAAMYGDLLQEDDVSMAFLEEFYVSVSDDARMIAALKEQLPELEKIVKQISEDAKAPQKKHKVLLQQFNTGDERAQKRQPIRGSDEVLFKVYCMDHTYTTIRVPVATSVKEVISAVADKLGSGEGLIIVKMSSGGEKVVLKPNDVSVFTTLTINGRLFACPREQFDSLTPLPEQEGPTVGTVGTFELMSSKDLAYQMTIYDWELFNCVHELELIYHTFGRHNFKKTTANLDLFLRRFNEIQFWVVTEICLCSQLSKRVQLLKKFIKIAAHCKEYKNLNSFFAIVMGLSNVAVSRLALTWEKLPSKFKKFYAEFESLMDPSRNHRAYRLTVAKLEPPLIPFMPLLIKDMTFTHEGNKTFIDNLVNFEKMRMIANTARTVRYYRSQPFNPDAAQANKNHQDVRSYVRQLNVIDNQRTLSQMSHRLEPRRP
Method in brief: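 Fluorescent exchange assay: 100 nM EPAC2 with 250 nM RAP1B-BODIPY-GDP and 50 uM GDP; compound added, 5 min at room temperature, then read (ex 480/em 540 nm) every 5 min for 30 min. Normalized to 6.5 mM cAMP agonist control.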
On the % scale 0 is the no-effect control and ±100 the full control effect.

activation, inactive:
CC(=O)Oc1c2c(c3c(c1CC=C(C)C)O[C@@]14C(=CC5CC1C(C)(C)OC4(C/C=C(\C)C(=O)O)C5=O)C3=O)OC(C)(CCC=C(C)C)C=C2 (some centres undefined) -51.4%, CCC(C(=O)OCCN(CC)CC)c1ccccc1 (centres undefined) -10%, CCn1cc(C(=O)O)c(=O)c2cc3c(cc21)OCO3 -8.05% and -34.5%, COC(=O)Nc1nc2ccc(S(=O)c3ccccc3)cc2[nH]1 (centres undefined) -9.71% and 10.6%, COc1ccc(SC[C@H](Cc2ccccc2)N2CC[C@@H](C)CCC2=O)cc1 -9.57%, CC(C)=CCC/C(C)=C/CO -13.8% and 5.47%, COc1cccc(C(=O)NCc2nc(-c3cccc(NC(=O)c4ccoc4C)c3)oc2C)c1 11.2%, O=C(NCc1ccccn1)c1cnn(-c2nccc(-c3ccccc3F)n2)c1C1CC1 -4.72%, Cc1cccc2cc(CNCCCN3CCCC3=O)c(N3CCN4CCCC4C3)nc12 (centres undefined) 0.369%, COc1ccc(-n2c(=O)c(C)nc3cnc(N4CCOCC4)nc32)cc1 -3.21%, CN(C)c1ccc(-c2ccc3ncnc(-n4ccnc4)c3c2)cc1 -4.53%, Cc1cnc(-n2ncc(C(=O)N(C)C3CCOC3)c2C)nc1-c1ccc(F)cc1 (centres undefined) -1.27%, COc1cc(=O)n2c(c1C(=O)N(C)Cc1nccs1)CCN(Cc1cc3ccccc3s1)CC2 -0.561%, O=c1cc(-c2cccc(O)c2)oc2cc(O)ccc12 -4.12%, CCn1ccnc1CC1COc2ccccc2O1 (centres undefined) -11.9% and -23.9%, CC(=O)N1CCN(C(=O)c2sc3ncnc(NCC4CCCO4)c3c2C)CC1 (centres undefined) 7.3%, Cc1c(C(=O)N2CCCCC2c2cccnc2)sc2ncnc(NCc3cccs3)c12 (centres undefined) -4.03%, Nc1nc2c(nc(Br)n2C2CC(O)C(CO)O2)c(=O)[nH]1 (centres undefined) -1.52%, Cc1cnc(C)c(-c2ccc(F)c3c2OC(CNC(=O)Cc2c(F)cccc2F)C3)n1 (centres undefined) -15.7%, CCOC(=O)C12CC1/C(=N/O)c1ccccc1O2 (centres undefined) -42.8%, CCC1CN(CCC(=O)N2CCN(c3ncccn3)CC2)Cc2cc(OC)ccc2O1 (centres undefined) -19.6%, Cc1cc2ccccc2c[n+]1CC(=O)c1ccc(F)cc1 -20.7%, Cc1ccc(SC[C@H](Cc2ccccc2)N2CC[C@@H](C)CCC2=O)cc1 -29.6%, NC(=O)C1CCCN(Cc2ccc3c(c2)CN(Cc2cn[nH]c2-c2ccc(F)cc2)CCO3)C1 (centres undefined) 4.97%
